From patent US6818625B2, “Method for increasing survival rate of cells in animal cell culture under hypoxia condition” (priority 2000, dated 2004)

tested on: HepG2 cells; experiment: Screening of antibiotics enhancing HepG2 cell viability under hypoxic condition; assay type: cell-based, human; details: HepG2, 1% (v/v) oxygen

Compound | enhancement effect on cell viability under hypoxic condition | effective concentration exerting enhancement effects on cell viability
CC1(C)S[C@@H]2[C@H](NC(=O)[C@H](N)c3ccc(O)cc3)C(=O)N2[C@H]1C(=O)O [amoxillin] | did not show enhancement effect | 
COc1ccc(C[C@H](N)C(=O)N[C@H]2[C@@H](O)[C@H](n3cnc4c(N(C)C)ncnc43)O[C@@H]2CO)cc1 [puromycin] | did not show any effect | 
C[C@H]1c2cccc(O)c2C(=O)C2=C(O)[C@]3(O)C(=O)C(C(N)=O)=C(O)[C@@H](N(C)C)[C@@H]3[C@@H](O)[C@@H]21 [doxycycline] |  | 0.1 to 10 µg/mL
CN(C)c1ccc(O)c2c1C[C@H]1C[C@H]3[C@H](N(C)C)C(O)=C(C(N)=O)C(=O)[C@@]3(O)C(O)=C1C2=O [minocycline] |  | 0.1 to 10 µg/mL
CC1COc2c(N3CCN(C)CC3)c(F)cc3c(=O)c(C(=O)O)cn1c23 (stereo not drawn) [ofloxacin] |  | 10 to 100 µg/mL
CN(C)[C@@H]1C(O)=C(C(N)=O)C(=O)[C@@]2(O)C(O)=C3C(=O)c4c(O)cccc4[C@@](C)(O)[C@H]3C[C@@H]12 [tetracycline] |  | 0.1 to 10 µg/mL
COc1ccc(CN2CCNCC2)c(OC)c1OC [trimetazidine] | did nor show any positive result | 
C[C@@H]1C[C@@H]([C@H](O)CC2CC(=O)NC(=O)C2)C(=O)[C@@H](C)C1 [cyclohexamide] | did not show any effect | 
O=C(O)c1cn(C2CC2)c2cc(N3CCNCC3)c(F)cc2c1=O [ciprofloxacin] | effective | 1 to 10 µg/mL
O=c1[nH]cc(F)c(=O)[nH]1 [5-fluorouracil] | did not show any effect | 
CC1(C)S[C@@H]2[C@H](NC(=O)[C@H](N)c3ccccc3)C(=O)N2[C@H]1C(=O)O [ampicillin] | did not show enhancement effect | 
CC[C@H]1OC(=O)[C@H](C)[C@@H](O[C@H]2C[C@@](C)(OC)[C@@H](O)[C@H](C)O2)[C@H](C)[C@@H](O[C@@H]2O[C@H](C)C[C@H](N(C)C)[C@H]2O)[C@](C)(O)C[C@@H](C)C(=O)[C@H](C)[C@@H](O)[C@]1(C)O [erythromycin] | not effective | 
neomycin | effective | 1000 µg/mL
CN(C)[C@@H]1C(O)=C(C(N)=O)C(=O)[C@@]2(O)C(O)=C3C(=O)c4c(O)cccc4[C@@](C)(O)[C@H]3[C@H](O)[C@@H]12 [oxytetracycline] |  | 0.1 to 10 µg/mL
gentamicin | effective | 
O=C(N[C@H](CO)[C@H](O)c1ccc([N+](=O)[O-])cc1)C(Cl)Cl [chloramphenicol] | effective | 1 to 10 µg/mL
Nc1ccc(S(=O)(=O)Nc2ncccn2)cc1 [sulfadiazine] | did not show any effect | 

same assay, conditions: Homo sapiens; HepG2, 1% (v/v) oxygen; read-out: effective concentration exerting enhancement effects on cell viability

Compound | minimal effective concentration
CN(C)[C@@H]1C(O)=C(C(N)=O)C(=O)[C@@]2(O)C(O)=C3C(=O)c4c(O)cccc4[C@@](C)(O)[C@H]3C[C@@H]12 [tetracycline] | 0.1 to 10 µg/mL
